Laboratory results published in the supplement of paper PMC4967469.
pIC50: −log10 of the molar value. A lower IC50 marks a more sensitive line; a fit beyond the top or the lowest dose is shown as a bound at that dose. AUC is the area under the same curve over the 256-fold range up to the top dose, as a fraction; the more sensitive the line, the further below 1. For some assays here: Any top dose called inferred was derived from the fitted curves, not read from the paper. For some assays here: An entry number marks a drug with two screens in the source, which often give different values.

Key:
Experiment in all cases: Viability of human cancer cell lines after 72 h of drug (GDSC screen)
Parthenolide = compound: C=C1C(=O)O[C@H]2[C@H]1CC/C(C)=C/CC[C@@]1(C)O[C@@H]21 [Parthenolide]; conditions: top dose 5 µM
Experimental: (§1)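 Human cancer cell lines in 384-well plates, medium with 10% serum, drug for 72 h over a 256-fold dose range (nine 2-fold or five 4-fold steps up to the top dose). Adherent lines were fixed and stained with the nucleic acid dye Syto60, suspension lines read with resazurin; signal relative to control wells, capped at 0 and 100%. One two-parameter sigmoid per drug and line, fitted in a mixed model over all curves with the slope shared within a line.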

KIN001-135 = compound: COc1cc2ncn(-c3cc(OCc4ccccc4S(C)(=O)=O)c(C#N)s3)c2cc1OC [KIN001-135]; conditions: top dose 5 µM; top dose inferred
Experimental: as §1

BMS-708163 = compound: NC(=O)[C@@H](CCC(F)(F)F)N(Cc1ccc(-c2ncon2)cc1F)S(=O)(=O)c1ccc(Cl)cc1 [BMS-708163]; conditions: top dose 5 µM; screen: GDSC drug entry 1072; top dose inferred
Experimental: as §1

PAC-1 = compound: C=CCc1cccc(/C=N/NC(=O)CN2CCN(Cc3ccccc3)CC2)c1O [PAC-1]; conditions: top dose 2.56 µM
Experimental: as §1

Row | Cell Line | AUC (Parthenolide) | pIC50 (Parthenolide) | AUC (KIN001-135) | pIC50 (KIN001-135) | AUC (BMS-708163) | pIC50 (BMS-708163) | AUC (PAC-1) | pIC50 (PAC-1)
1 | MOLM-13 (acute myeloid leukaemia, suspension) | 0.853 | 5.45 | 0.945 | < 5.30 | 0.984 | < 5.30 | 0.884 | 5.61
2 | MOLP-8 (myeloma, suspension) | 0.814 | 5.59 | 0.987 | < 5.30 | 0.987 | < 5.30 | 0.877 | 5.62
3 | MONO-MAC-6 (acute myeloid leukaemia, suspension) | 0.945 | < 5.30 | 0.978 | < 5.30 | 0.983 | < 5.30 | 0.927 | < 5.59
4 | MPP-89 (mesothelioma, adherent) | 0.902 | < 5.30 | 0.978 | < 5.30 | 0.979 | < 5.30 | 0.98 | < 5.59
5 | MRK-nu-1 (breast, suspension) | 0.802 | 5.65 | 0.99 | < 5.30 | 0.99 | < 5.30 | 0.939 | < 5.59
6 | MS-1 (small cell lung carcinoma, suspension) | 0.987 | < 5.30 | 0.979 | < 5.30 | 0.987 | < 5.30 | 0.97 | < 5.59
7 | MSTO-211H (mesothelioma, adherent) | 0.99 | < 5.30 | 0.988 | < 5.30 | 0.991 | < 5.30 | 0.984 | < 5.59
8 | MV-4-11 (leukaemia, suspension) | 0.866 | 5.50 | 0.983 | < 5.30 | 0.99 | < 5.30 | 0.96 | < 5.59
9 | MY-M12 (leukaemia, suspension) | 0.875 | < 5.30 | 0.976 | < 5.30 | 0.941 | < 5.30 | 0.939 | < 5.59
10 | MZ1-PC (pancreas, adherent) | 0.975 | < 5.30 | 0.979 | < 5.30 | 0.975 | < 5.30 | 0.885 | < 5.59
11 | MZ2-MEL (melanoma, adherent) | 0.927 | < 5.30 | 0.983 | < 5.30 | 0.922 | < 5.30 | 0.958 | < 5.59
12 | MZ7-mel (melanoma, adherent) | 0.951 | < 5.30 | 0.986 | < 5.30 | 0.985 | < 5.30 | 0.848 | 5.70
13 | Mo-T (hairy cell leukaemia, suspension) | 0.987 | < 5.30 | 0.987 | < 5.30 | 0.987 | < 5.30 | 0.987 | < 5.59
14 | NALM-6 (B-cell leukaemia, suspension) | 0.877 | 5.44 | 0.99 | < 5.30 | 0.991 | < 5.30 | 0.731 | 6.20
15 | NAMALWA (Burkitt lymphoma, suspension) | 0.926 | < 5.30 | 0.985 | < 5.30 | 0.991 | < 5.30 | 0.904 | 5.61
16 | NB1 (neuroblastoma, semi-adherent) | 0.937 | < 5.30 | 0.934 | < 5.30 | 0.981 | < 5.30 | 0.931 | < 5.59
17 | NB5 (neuroblastoma, adherent) | 0.98 | < 5.30 | 0.973 | < 5.30 | 0.919 | < 5.30 | 0.955 | < 5.59
18 | NB6 (neuroblastoma, adherent) | 0.984 | < 5.30 | 0.966 | < 5.30 | 0.975 | < 5.30 | 0.984 | < 5.59
19 | NB10 (neuroblastoma, adherent) | 0.771 | 5.73 | 0.815 | 5.57 | 0.982 | < 5.30 | 0.962 | < 5.59
20 | NB12 (neuroblastoma, adherent) | 0.966 | < 5.30 | 0.974 | < 5.30 | 0.979 | < 5.30 | 0.975 | < 5.59
21 | NB14 (neuroblastoma, adherent) | 0.873 | 5.36 | 0.987 | < 5.30 | 0.987 | < 5.30 | 0.908 | < 5.59
22 | NB69 (neuroblastoma, adherent) | 0.989 | < 5.30 | 0.989 | < 5.30 | 0.988 | < 5.30 | 0.954 | < 5.59
23 | NB(TU)1-10 (neuroblastoma, adherent) | 0.992 | < 5.30 | 0.987 | < 5.30 | 0.993 | < 5.30 | 0.818 | 5.92
24 | NB-4 (acute myeloid leukaemia, suspension) | 0.92 | < 5.30 | 0.99 | < 5.30 | 0.979 | < 5.30 | 0.824 | 5.93
25 | NCI-H23 (lung adenocarcinoma, adherent) | 0.988 | < 5.30 | 0.985 | < 5.30 | 0.861 | 5.38 | 0.982 | < 5.59
26 | NCI-H64 (small cell lung carcinoma, suspension) | 0.979 | < 5.30 | 0.996 | < 5.30 | 0.992 | < 5.30 | 0.968 | < 5.59
27 | NCI-H69 (small cell lung carcinoma, suspension) | 0.985 | < 5.30 | 0.981 | < 5.30 | 0.986 | < 5.30 | 0.948 | < 5.59
28 | NCI-H82 (small cell lung carcinoma, suspension) | 0.986 | < 5.30 | 0.988 | < 5.30 | 0.986 | < 5.30 | 0.989 | < 5.59
